“And” between values parts separate entries of the source, which are not always exact repeats. Identical values can stand only once. Screen size: about 420,000 compounds; about 50,000 (12%) were called active. Inconclusive means that the source gave no clear call. Such entries were picked first, then a sample of the others. The call rests on the fitted dose curve; in most records, active means well fitted inhibition curve with a large enough effect; inconclusive means small, poorly fitted or top-dose-only effect; inactive means flat fitted curve, though single readings scatter. Potencies beside an inconclusive call are fits to weak or partial responses and may not hold up.
assay: qHTS for Inhibitors of human tyrosyl-DNA phosphodiesterase 1 (TDP1): qHTS in cells in presence of CPT; conditions: chicken DT40 Tdp1-/-;hTDP1 cells + 20 nM CPT, ATP luminescence, 48 h; activity change, negative = growth inhibition: at 46.2 µM (top of the series); further: nearly all actives have a fitted effect of over 55% in size
Procedure, shortened: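 Chicken DT40 Tdp1-/- cells stably complemented with human TDP1 were seeded at 400 cells/well in medium containing 20 nM camptothecin, exposed to pin-transferred compounds, and grown at 37 °C for at least 48 hr. Viability was read as ATP luminescence.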
On the % scale 0 is the no-effect control and ±100 the full control effect; potency means the concentration at half of the fitted maximal effect; tags describe the fitted curve by direction and shape.

Row | Compound | activity change, negative = growth inhibition | Potency
1 | O=C1CCC/C(=N/NC(=O)c2sc3ccccc3c2Cl)C1 | inactive: -7.67% | 
2 | Cc1ccc(Cl)cc1NC(=O)c1ccccc1OCC(=O)Nc1ccc(Cl)cc1 |  | inconclusive: 11.6 µM [inhibitor, partial curve]
3 | COc1ccc(-n2nnc3c(=O)n(CC(=O)Nc4cc(C)on4)cnc32)cc1OC | inactive: -0.212% | 
4 | CSCCC(NS(=O)(=O)c1ccccc1F)C(=O)OCc1ccccc1Cl (centres undefined) |  | inconclusive: 18.4 µM [inhibitor, single point]
5 | CCOC(=O)N1CCN(S(=O)(=O)c2ccc(OCC)cc2)CC1 |  | inconclusive: 29.1 µM [inhibitor, single point]
6 | COc1ccc(N=Nc2nc3ccc(Br)cc3n2C)cc1 |  | inconclusive: 29.1 µM [inhibitor, single point]
7 | CCc1nc2c(OCCn3cccc3)cccn2c1N(C=O)Cc1ccccc1 |  | inconclusive: 16.4 µM [inhibitor, single point]
8 | O=C(NCCn1cccn1)C1CCC(=O)N(CCc2cccc(F)c2)C1 (centres undefined) | inactive: -2.12% | 
9 | C[C@@H]1CN([C@@H](C)CO)C(=O)c2cccc(NC(=O)Nc3ccc(F)cc3)c2O[C@@H]1CN(C)Cc1ccc(Oc2ccccc2)cc1 |  | active: 13 µM
10 | Nc1nonc1-n1nnc(C(=O)N/N=C/C=C/c2ccccc2)c1CSC1=NCCS1 |  | inconclusive: 29.1 µM [inhibitor, single point]
11 | O=C(CN(C(=O)c1csnn1)c1cccc2ccccc12)NC1CCCC1 | inactive: 8.36% | 
12 | CCOC(=O)c1cnc2ccc(Br)cc2c1NCCN1CCOCC1 |  | active: 20.6 µM
13 | COc1ccc(C(O)c2nc(-c3ccc4ccccc4c3)cs2)cc1 (centres undefined) |  | inconclusive: 29.1 µM [inhibitor, single point]
14 | COc1ccc(NC(=O)c2oc3ccccc3c2CSC)cc1S(=O)(=O)N1CCOCC1 | inactive: 10.8% | 
15 | CCOC(=O)COc1ccc(CC)cc1C(=O)c1ccn2nc(-c3ccc(F)cc3)cc2n1 |  | inconclusive: 20.6 µM [inhibitor, single point]
16 | COc1ccc(-c2noc(CC(=O)N(C)c3cccc(C)c3)n2)cc1 |  | inconclusive: 16.4 µM [inhibitor, single point]
17 | Cc1ccc(S(=O)(=O)CS(=O)(=O)c2ccc(C)cc2)cc1 | inactive: -20.1% | 
18 | CCn1c2ccccc2c2cc(NC(=O)c3cccc(OC)c3OC)ccc21 |  | active: 8.2 µM
19 | CCOC(=O)C1CCN(C(=O)c2ccccc2CCc2ccccc2)CC1 |  | inconclusive: 14.6 µM [inhibitor, partial curve]
20 | COc1cccc(COc2ccc3c(C)c(Cc4ccccc4)c(=O)oc3c2)c1 |  | inconclusive: 25.9 µM [inhibitor, single point]
21 | CC(C)(C)[C@@H]1CCC(=O)N(CC[C@H](N=[N+]=[N-])c2ccccc2)CC1 |  | inconclusive: 20 µM [inhibitor, single point] and inconclusive: 25.9 µM [inhibitor, single point]
22 | O=C(CN1CCCCC1)N/N=C/c1cc2ccccc2nc1Cl |  | inconclusive: 20.6 µM [inhibitor, single point]
23 | COc1ccc(C(=O)c2cn(Cc3ccccc3F)c3cc4c(cc3c2=O)OCCO4)cc1OC |  | inconclusive: 29.1 µM [inhibitor, single point]

Row | Compound | activity change, negative = growth inhibition | Potency
24 | CCc1nc2c(OCC3CCCCC3)cccn2c1N(C)C(=O)c1ccccc1F |  | inconclusive: 29.1 µM [inhibitor, single point]
25 | O=C(O)c1cn(Cc2ccccc2)c2ccc(Cl)cc2c1=O |  | inconclusive: 25.9 µM [inhibitor, single point]
26 | COCC(=O)N1CCC2CC1c1c(-c3ccc(C(F)(F)F)cc3)cccc12 (centres undefined) |  | active: 23.1 µM
27 | O=C(Nc1ccc2c(c1)CCCN2C(=O)c1cccs1)c1ccc(F)c(F)c1 |  | active: 16.4 µM
28 | Oc1ccc(C(c2nnnn2CCc2ccccc2)N2CCN(c3nc4ccccc4s3)CC2)cc1 (centres undefined) |  | active: 16.4 µM
29 | Cc1cccc(OCC(O)Cn2c(NCCCOC(C)C)nc3c2c(=O)[nH]c(=O)n3C)c1 (centres undefined) |  | inconclusive: 5.8 µM [inhibitor, partial curve]
30 | CCOc1ccc(C(=O)NCc2ccccc2)cc1Br | inactive: 8.86% | 
31 | COc1ccc(C)cc1NC(=O)c1ccc(CN2CCc3ccccc3C2)cc1 |  | inconclusive: 25.9 µM [inhibitor, single point]
32 | CCc1[nH]nc(C(=O)N2CCCC(C(=O)c3cccc(C(F)(F)F)c3)C2)c1C (centres undefined) |  | inconclusive: 25.9 µM [inhibitor, partial curve, poor fit]
33 | CCc1cccc2c(SCC(=O)NCC3CCCO3)nc(-c3ccc(F)cc3)nc12 (centres undefined) | inconclusive: -30.7% [inhibitor] | 
34 | O=C(N/N=C/c1ccc(N2CCOCC2)s1)c1ccccc1Cl |  | inconclusive: 29.1 µM [inhibitor, single point]
35 | C#Cc1ccc([C@H]2C=C(C(=O)Nc3ccccc3)O[C@@H](OCc3ccc(CO)cc3)C2)cc1 |  | inconclusive: 29.1 µM [inhibitor, single point]
36 | COc1ccc(NC(=S)N2C3CCC2CC(NC(=O)NC24CC5CC(CC(C5)C2)C4)C3)c(OC)c1 (centres undefined) |  | inconclusive: 29.1 µM [inhibitor, single point]
37 | COc1cc(CN2CCNC(=O)C2CC(=O)N(C)Cc2cccnc2)cc(OC)c1 (centres undefined) |  | inconclusive: 29.1 µM [inhibitor, single point]
38 | COc1ccc(-c2nn(-c3ccccc3)cc2/C=N/Nc2ccccn2)cc1OC |  | active: 7.31 µM
39 | NC(c1csc(Nc2nncc3ccccc23)n1)C1CCCCC1 (centres undefined) |  | active: 5.8 µM
40 | Clc1ccc2c(c1)-n1cc(-c3ccccc3)nc1CO2 |  | inconclusive: 8.2 µM [inhibitor, partial curve]
41 | CCc1ccc(S(=O)(=O)c2cn(Cc3ccccc3)c3cc(N4CCCC4)c(F)cc3c2=O)cc1 |  | inconclusive: 29.1 µM [inhibitor, single point]
42 | CC(c1nccs1)N(C)c1nc2nonc2nc1NC1CC1 (centres undefined) | inactive: -26.4% | 
43 | CCOc1cc(/C=N/NC(=O)c2cccnc2)ccc1OCC(=O)N1CCOCC1 | inactive: 7.21% | 
44 | COc1ccc(Cl)cc1S(=O)(=O)Nc1ccc2[nH]c(=O)[nH]c2c1 |  | active: 20.6 µM
45 | COc1ccc(N=C2SCC(c3ccccc3)=NN2C)cc1 |  | inconclusive: 23.1 µM [inhibitor, single point]
46 | CCc1nn(C(C)C(=O)NC(C)CCc2ccco2)c(=O)c2cc3occc3n12 (centres undefined) | inconclusive: -30.7% [inhibitor] | 

Row | Compound | activity change, negative = growth inhibition | Potency
47 | O=C1CCC(C(=O)OCC(=O)N2N=C3/C(=C/c4ccccc4)CCCC3C2c2ccccc2)N1 (centres undefined) |  | inconclusive: 18.4 µM [inhibitor, single point]
48 | CCCCN(C(=O)c1ccc([N+](=O)[O-])s1)c1c(N)n(CCCC)c(=O)[nH]c1=O |  | inconclusive: 7.31 µM [inhibitor, partial curve]
49 | COc1ccccc1Cc1c(-c2ccco2)nc2ccc(Cl)cn12 |  | active: 16.4 µM
50 | Cc1cccc(CNC(=O)c2cc3cc(S(=O)(=O)N4CCCCC4)ccc3n2C)c1 |  | inconclusive: 16.4 µM [inhibitor, partial curve]
51 | Cc1ccc(CCNC(=O)Cn2c(-c3cccs3)cc3ccccc32)cc1 |  | inconclusive: 23.1 µM [inhibitor, single point]
52 | COc1ccc2nc(C)cc(Nc3ccccc3OC)c2c1 |  | inconclusive: 16.4 µM [inhibitor, partial curve]
53 | O=C(c1csnn1)N1CCC2(CCCN(c3ccncc3)C2)CC1 | inactive: 2.03% | 
54 | COc1ccc(C(=O)C[C@@H]2OC3CCCCC3N2S(=O)(=O)c2ccc(C)cc2)cc1OC (some centres undefined) |  | active: 16.4 µM
55 | CCCC(=O)Nc1ccc(N2CCN(C(=O)c3cc4ccccc4o3)CC2)cc1 | inactive: -9.38% | 
56 | Cc1ccc(NS(=O)(=O)c2cccc(C(=O)NNC(=O)NC3CCCCC3)c2)c(C)c1 |  | inconclusive: 14.6 µM [inhibitor, partial curve, poor fit]
57 | CCN(CCCNC(=O)CN(C)S(=O)(=O)c1cccc2nsnc12)c1cccc(C)c1 |  | inconclusive: 29.1 µM [inhibitor, single point]
58 | CC(C)OCCCn1c(=O)c2ccccc2n2c(-c3ccccc3)nnc12 |  | inconclusive: 4.11 µM [inhibitor, single point]
59 | CCCCOc1ccc(NC(=O)CSc2cccc3cccnc23)cc1 |  | inconclusive: 18.4 µM [inhibitor, partial curve]
60 | Cc1ccc(-c2cc(C(=O)N3CCN(S(=O)(=O)c4ccc(Br)cc4)CC3)[nH]n2)c(C)c1 |  | inconclusive: 16.4 µM [inhibitor, single point]
61 | CCCCCCn1cc(C(=O)O)c(=O)c2cc(F)c(N3CCN(C)CC3)cc21 |  | active: 16.4 µM
62 | N#Cc1ccccc1Cn1c(=O)n(Cc2ccc(C(=O)NCc3ccco3)cc2)c(=O)c2sccc21 | inactive: 12.5% | 
63 | CC(=O)c1ccc(NC(=O)C2CCN(c3nnc(C)c4c(C)n(-c5ccccc5)nc34)CC2)cc1 |  | active: 14.6 µM
64 | CC(C)(C)NC(=O)Nc1ccc(Br)cc1 |  | inconclusive: 20.6 µM [inhibitor, single point]
65 | CC(C)CC(=O)N=Nc1c(O)[nH]c2ccccc12 | inactive: 0.0866% | 
66 | Cc1ccnc(NC(=O)c2ccccc2NC(=O)c2ccc(Cl)cc2Cl)c1 |  | active: 3.66 µM
67 | COc1ccc(S(=O)(=O)N2CCOC2CNC(=O)C(=O)NCc2ccc(F)cc2)cc1OC (centres undefined) | inactive: -22.9% | 
68 | CCc1nn2c(=O)cc(COC(=O)Cc3ccccc3)nc2s1 |  | inconclusive: 14.6 µM [inhibitor, single point]
69 | CCOC(=O)C1(CCCc2ccccc2)CCN(C(=O)CCN2CCCCC2=O)CC1 |  | inconclusive: 20.6 µM [inhibitor, single point]

Source: PubChem BioAssay AID686979 (National Center for Advancing Translational Sciences (NCATS), 2013)
